Reference: PubChem BioAssay (NCATS)
The inconclusive results got no clear call from the source; some entries with a clear call stand among them for comparison. For some assays here: A potency beside an inconclusive call is a rough fit, not a confirmed value. Activity calls are given as the source filed them. Unless noted, calls come from the whole dose curve; as a rule, active = well fitted curve in the direction sought with a large enough effect; inconclusive = small, poorly fitted or top-dose-only effect, or another doubt; inactive = no such curve, though single readings can be large; an effect the other way counts as inactive or inconclusive.

Assays:
[1] = Cell Viability - NIH 3T3 (AID 541); details: NIH 3T3 cell viability, qHTS; activity change, negative = cytotoxicity: at 92.2 µM (top of the series);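 note: plate controls were DMSO alone for no effect and tamoxifen positive control for full effect; nearly all actives have a fitted effect of over 25% in size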
Method in brief: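 Mouse NIH 3T3 fibroblasts, 1000 cells/well, rested 5 hr at 37 °C, then exposed to compound for 40 hr at 37 °C in complete medium. Viability read as intracellular ATP by CellTiter-Glo luminescence; AC50 from Hill-equation fits of concentration-response data.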

[2] = Cellular Toxicity (caspase-3) Jurkat (AID 655); details: Jurkat caspase-3 activation, luminescence, DMSO = 0%, tamoxifen = 100%; at 92.2 µM (top of the series);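 note: cells exposed to compound for 16 h at 37 °C before reading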
Method in brief: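 Luminescent caspase-3/7 readout (aminoluciferin substrate cleavage) in human T-cell leukemia Jurkat cells after 16 hr compound exposure. Concentration-response normalized to DMSO and 100 uM tamoxifen; AC50 by standard Hill equation.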

[3] = Cellular Toxicity (caspase-3) NIH 3T3 (AID 666);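 note: caspase signal read after 16 h compound exposure; 0% = DMSO basal and 100% = 100 µM tamoxifen stimulation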
Method in brief: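 Mouse NIH 3T3 fibroblasts (1000/well) treated 16 h at 37 C; caspase-3/7 activity measured by Caspase-Glo 3/7 luminescence after 20 min. Normalized to DMSO and 100 uM tamoxifen; AC50 from Hill fits.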

[4] = MultiTox-Fluor Cytotoxicity Assay - LYMP1-002 - Dead Cells (AID 960); details: LYMP1-002 lymphoblastoid cells, dead-cell protease fluorescence; cytotoxicity (dead cells): at 46.1 µM (top of the series); note: potency is the fitted concentration of half-maximal effect; nearly all actives have a fitted effect of over 60% in size
Method in brief: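 Human lymphoblastoid LYMP1-002 cells, 2500/well, treated 16 h at 37 C; dead-cell protease cleavage of bis-AAF-R110 read by fluorescence (485/520); normalized to DMSO and 15 uM tetraoctylammonium bromide; AC50 from Hill fit.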

[5] = Cell Viability - LYMP2-018 (AID 985); details: LYMP2-018 lymphoblastoid cells, viability (qHTS);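 note: potency is the fitted concentration of half-maximal effect; compound exposure lasted 24 hr at 37 °C; nearly all actives have a fitted effect of over 50% in size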
Method in brief: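 Human lymphoblastoid LYMP2-018 cells, 2500/well, settled 5 hr at 37 C then exposed to compound 24 hr at 37 C; intracellular ATP measured by CellTiter-Glo luminescence. AC50 from Hill-equation concentration-response fits.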

[6] = qHTS assay for small molecule agonists of the antioxidant response element (ARE) signaling pathway (AID 651741; active = well fitted activation curve with a large enough effect in the signal ratio; inconclusive = small, poorly fitted or top-dose-only effect, or effect the other way, or a change in a side signal; the % refers to the signal ratio; note: potency is the fitted concentration of half-maximal effect); details: HepG2 ARE-bla reporter, beta-lactamase FRET ratio, 16 h; activation: at 96 µM (top of the series)
Method in brief: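 Compounds in DMSO are pinned onto HepG2 ARE-bla cells (2,000/well) that were preincubated 5 h; plates stay 16 h at 37 C, then beta-lactamase activity is detected with LiveBLAzer B/G substrate by fluorescence.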

[7] = qHTS of pediatric cancer cell lines to identify multiple opportunities for drug repurposing: Primary screen for Rh41 cells (AID 1347108);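 note: luminescence drop marks cytotoxic hits; nearly all actives have a fitted effect of over 70% in size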
Method in brief: (§1)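 Cells seeded at 500-1,000 cells/well in growth media, rested 5 hours at 37 degrees C, 5% CO2, then dosed; MIPE compounds at 11-point (from 0.78 nM) and NPC at 8-point (from 0.59 nM) final concentrations. Viability by CellTiter-Glo luminescence after 48 hours.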

[8] = Confirmatory qHTS for small molecule stabilizers of the endoplasmic reticulum resident proteome: Secreted ER Calcium Modulated Protein (SERCaMP) assay (AID 1508628); note: potency is the fitted concentration of half-maximal effect; nearly all actives have a fitted effect of over 40% in size
Method in brief: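 SH-SY5Y cells stably expressing GLuc-SERCaMP, treated 16 h with compound (primary 1.53, 7.67, 38.3 uM; confirmation 11 concentrations, up to 76.6 uM), then 100 nM thapsigargin for 4 h. Secreted Gaussia luciferase in medium read by coelenterazine luminescence.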

[9] = Cell Viability qHTS for small molecule stabilizers of the endoplasmic reticulum resident proteome (AID 1508629); details: cell viability counter-screen, 100 nM thapsigargin for final 4 h;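 note: potency is the fitted concentration of half-maximal effect; compound exposure about 46 h in total before the viability read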
[10] = Primary qHTS for small molecule stabilizers of the endoplasmic reticulum resident proteome: Secreted ER Calcium Modulated Protein (SERCaMP) assay (AID 1508630); details: SH-SY5Y GLuc-SERCaMP (Gaussia luciferase released on ER calcium loss) secretion, thapsigargin, luminescence; activity change, negative = inhibition: at 38.4 µM (top of the series) unless noted; note: potency is the fitted concentration of half-maximal effect
Method in brief: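 GLuc-SERCaMP-expressing SH-SY5Y cells, pretreated 16 h with compound, are challenged with thapsigargin to empty ER calcium stores; after 4 h, coelenterazine is added directly to the medium and luminescence is imaged.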

[11] = biological target: Cytochrome P450 2C9 (Homo sapiens) (UniProt P11712); assay: qHTS Assay for Inhibitors and Substrates of Cytochrome P450 2C9 (AID 883); note: potency is the fitted concentration of half-maximal effect; nearly all actives have a fitted effect of over 60% in size
Method in brief: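 Human CYP2C9 (10nM) hydroxylated Luciferin-H (100uM, at its KM) to luciferin in 25mM KPO4. Compound was preincubated 10 min at 37C, then NADPH regeneration started a 60 min reaction at 37C. Luminescence was read after detection reagent, normalized to 57uM sulphaphenazole.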

[12] = biological target: Cytochrome P450 2D6 (Homo sapiens) (UniProt P10635); assay: qHTS Assay for Inhibitors and Substrates of Cytochrome P450 2D6 (AID 891); details: recombinant CYP2D6, luciferin-ME EGE luminescence; activity change, negative = inhibition: at 57.1 µM (top of the series);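 note: luciferin methyl ether substrate demethylated by CYP2D6 with NADPH regeneration; potency is the fitted concentration of half-maximal effect; nearly all actives have a fitted effect of over 60% in size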
Method in brief: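 Human CYP2D6 (5 nM) with 30 uM Luciferin-ME EGE (at Km) in 100 mM KPO4, compound preincubated 10 min, then NADPH regeneration system for 60 min at room temperature. Luciferin read by luminescence; normalized to 1.43 uM quinidine.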

[13] = biological target: Ubiquitin carboxyl-terminal hydrolase 1 (Homo sapiens) (UniProt O94782); assay: Inhibitors of USP1/UAF1: Pilot qHTS (AID 504865);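 note: rhodamine fluorescence freed from ubiquitin-rhodamine substrate followed over time; potency is the fitted concentration of half-maximal effect; nearly all actives have a fitted effect of over 35% in size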
Method in brief: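 1nM USP1/UAF1 + cpd, 15 min RT; start w/ Ub-Rho 150nM final; kinetic FL 480/540 nm, 6 reads q60 s. Buffer 50mM HEPES pH 7.8, 0.5mM EDTA, 1mM TCEP, 0.01% Tween-20, 0.1 mg/ml BSA.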

[14] = qHTS of pediatric cancer cell lines to identify multiple opportunities for drug repurposing: Primary screen for A673 cells (AID 1347092); details: A673 Ewing sarcoma viability, CellTiter-Glo ATP luminescence, 48 h; activity change, negative = cytotoxic: at 46 µM (top of the series); note: % is set by controls: 0 for no effect and ±100 for the full control effect; nearly all actives have a fitted effect of over 45% in size
Method in brief: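 48 h compound exposure, A673, 500-1,000 cells/well, 37 degrees C/5% CO2. MIPE: 11-point, 0.78 nM-46 µM; NPC: 8-point, 0.59 nM-46 µM (final). Readout CellTiter-Glo luminescence after 15 min RT.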

[15] = qHTS of pediatric cancer cell lines to identify multiple opportunities for drug repurposing: Primary screen for NB-EBc1 cells (AID 1347095);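 note: plate controls were DMSO neutral control for no effect and bortezomib for full effect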
Method in brief: as §1

[16] = qHTS of pediatric cancer cell lines to identify multiple opportunities for drug repurposing: Primary screen for U-2 OS cells (AID 1347096);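 note: plate controls were DMSO wells for no effect and bortezomib positive control wells for full effect; nearly all actives have a fitted effect of over 50% in size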
Method in brief: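 Cells (500-1,000/well) in growth media were settled 5 h at 37 degrees C, then given compounds for 48 h. Viability was read as CellTiter-Glo luminescence. Primary runs used MIPE at 11 points (0.78 nM-46 µM) and NPC at 8 points (0.59 nM-46 µM); follow-ups used 11 points.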

[17] = qHTS of pediatric cancer cell lines to identify multiple opportunities for drug repurposing: Primary screen for SK-N-SH cells (AID 1347098);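 note: DMSO served as neutral control and bortezomib at 2.3 µM as positive control; % is set by controls: 0 for no effect and ±100 for the full control effect; nearly all actives have a fitted effect of over 65% in size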
Method in brief: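 Cells (500-1,000/well) rested 5 h, then received compounds for 48 h; metabolically active cells were measured by CellTiter-Glo luminescence. Final concentrations spanned up to 46 µM (MIPE, 11-point) or 0.59 nM-46 µM (NPC, 8-point) in primary screens, 11-point in follow-ups.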

[18] = qHTS of pediatric cancer cell lines to identify multiple opportunities for drug repurposing: Primary screen for MG 63 (6-TG R) cells (AID 1347105); details: MG 63 (6-TG R) viability, CellTiter-Glo, 48 h; activity change, negative = cytotoxic: at 46 µM (top of the series); note: % is set by controls: 0 for no effect and ±100 for the full control effect; nearly all actives have a fitted effect of over 50% in size
Method in brief: as §1

[19] = biological target: Calcium and integrin-binding protein 1 (Homo sapiens) (UniProt Q99828); assay: Primary qHTS for Identification of Calcium Integrin Binding Protein 1 (CIB1) Competitor (AID 1508620);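 note: GST tagged CIB1 binding a fluorescein labelled alphaIIb integrin peptide tracer; top concentration of the series differs between compounds; % is set by controls: 0 for no effect and ±100 for the full control effect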
Method in brief: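 Fluorescence polarization competition: CIB1-GST (1 uM final) preincubated with compound 15 min at room temperature, then FITC-labeled alphaIIb peptide (100 nM final) added for another 15 min. Polarization read at Ex 480/Em 540.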

[20] = A High-Content qHTS Against Drug Library for the Identification of Small Molecules that Inhibit DYT1 Early Onset Primary Dystonia-Associated Cell Pathology (AID 1645839; calls by dose curve)
Method in brief: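 Readout: %pathology, the punctate EGFP-TorsinA distribution from imaging, as the primary channel and cell count as the toxicity counterscreen. HEK293 Flp-In cells expressing delE TorsinA were induced with tetracycline and treated with compound for 48 h.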

7G8 = assay: qHTS profiling for inhibitors of Plasmodium falciparum proliferation (AID 504749); note: nearly all actives have a fitted effect of over 60% in size; note: potency is the fitted concentration of half-maximal effect; details: P. falciparum in erythrocytes, SYBR Green DNA, 72 h; series mostly up to 28.7 µM
Method in brief: (§2)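 Parasite proliferation within erythrocytes, 72 h exposure. Endpoint: SYBR Green I fluorescence after overnight lysis at room temperature. Controls: 0.29 uM artemisinin, DMSO.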

CP250 = assay: as above; details: P. falciparum in erythrocytes, SYBR Green DNA, 72 h; series mostly up to 28.7 µM
Method in brief: as §2

CP268 = assay: as above; details: P. falciparum in erythrocytes, SYBR Green DNA, 72 h; series mostly up to 28.7 µM
Method in brief: as §2

CP329 = assay: as above; details: P. falciparum in erythrocytes, SYBR Green DNA, 72 h; series mostly up to 28.7 µM
Method in brief: as §2

ICS = assay: as above; details: P. falciparum in erythrocytes, SYBR Green DNA, 72 h; series mostly up to 28.7 µM
Method in brief: as §2
Tags give direction and shape of the fitted curve.

Sequence of UniProt O94782 (O94782 whole entry, looked up): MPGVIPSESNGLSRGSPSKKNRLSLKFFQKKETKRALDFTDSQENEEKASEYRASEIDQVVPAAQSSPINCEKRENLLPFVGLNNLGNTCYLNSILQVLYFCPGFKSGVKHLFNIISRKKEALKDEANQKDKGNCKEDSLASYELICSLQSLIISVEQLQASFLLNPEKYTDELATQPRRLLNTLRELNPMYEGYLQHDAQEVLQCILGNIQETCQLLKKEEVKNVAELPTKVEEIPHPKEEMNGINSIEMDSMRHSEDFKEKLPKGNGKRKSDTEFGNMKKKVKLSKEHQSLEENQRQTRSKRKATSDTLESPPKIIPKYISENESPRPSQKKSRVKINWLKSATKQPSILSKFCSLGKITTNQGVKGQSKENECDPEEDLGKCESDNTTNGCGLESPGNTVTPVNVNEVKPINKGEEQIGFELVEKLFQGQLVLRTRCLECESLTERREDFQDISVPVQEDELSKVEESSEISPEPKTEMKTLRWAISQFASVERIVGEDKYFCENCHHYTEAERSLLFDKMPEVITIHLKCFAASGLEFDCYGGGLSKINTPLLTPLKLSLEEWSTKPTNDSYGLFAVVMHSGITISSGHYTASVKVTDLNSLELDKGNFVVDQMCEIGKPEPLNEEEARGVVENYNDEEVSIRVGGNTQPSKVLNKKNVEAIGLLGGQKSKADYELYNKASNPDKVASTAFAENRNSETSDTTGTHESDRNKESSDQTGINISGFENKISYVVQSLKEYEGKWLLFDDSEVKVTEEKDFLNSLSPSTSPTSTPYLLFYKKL
Sequence of UniProt Q99828 (Q99828 whole entry, looked up): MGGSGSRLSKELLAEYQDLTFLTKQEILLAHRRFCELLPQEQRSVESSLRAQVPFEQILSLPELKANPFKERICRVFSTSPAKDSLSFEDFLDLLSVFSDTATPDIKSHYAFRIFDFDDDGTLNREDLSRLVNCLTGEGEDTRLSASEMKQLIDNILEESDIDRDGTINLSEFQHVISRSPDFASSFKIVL
Sequence of UniProt P11712 (P11712 whole entry, looked up): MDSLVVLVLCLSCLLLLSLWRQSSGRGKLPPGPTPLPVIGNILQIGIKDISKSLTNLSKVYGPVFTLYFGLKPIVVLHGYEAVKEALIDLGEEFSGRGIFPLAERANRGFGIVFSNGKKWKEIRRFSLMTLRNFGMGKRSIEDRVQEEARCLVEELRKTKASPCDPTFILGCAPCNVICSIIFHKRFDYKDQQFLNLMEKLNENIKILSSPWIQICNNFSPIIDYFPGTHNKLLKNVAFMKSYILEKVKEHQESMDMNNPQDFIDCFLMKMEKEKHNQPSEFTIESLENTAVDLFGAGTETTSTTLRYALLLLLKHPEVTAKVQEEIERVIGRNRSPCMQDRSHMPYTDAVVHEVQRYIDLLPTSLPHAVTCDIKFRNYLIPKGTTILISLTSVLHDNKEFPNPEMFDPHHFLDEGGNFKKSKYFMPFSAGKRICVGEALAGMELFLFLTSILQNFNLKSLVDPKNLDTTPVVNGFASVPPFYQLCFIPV
Sequence of UniProt P10635 (P10635 whole entry, looked up): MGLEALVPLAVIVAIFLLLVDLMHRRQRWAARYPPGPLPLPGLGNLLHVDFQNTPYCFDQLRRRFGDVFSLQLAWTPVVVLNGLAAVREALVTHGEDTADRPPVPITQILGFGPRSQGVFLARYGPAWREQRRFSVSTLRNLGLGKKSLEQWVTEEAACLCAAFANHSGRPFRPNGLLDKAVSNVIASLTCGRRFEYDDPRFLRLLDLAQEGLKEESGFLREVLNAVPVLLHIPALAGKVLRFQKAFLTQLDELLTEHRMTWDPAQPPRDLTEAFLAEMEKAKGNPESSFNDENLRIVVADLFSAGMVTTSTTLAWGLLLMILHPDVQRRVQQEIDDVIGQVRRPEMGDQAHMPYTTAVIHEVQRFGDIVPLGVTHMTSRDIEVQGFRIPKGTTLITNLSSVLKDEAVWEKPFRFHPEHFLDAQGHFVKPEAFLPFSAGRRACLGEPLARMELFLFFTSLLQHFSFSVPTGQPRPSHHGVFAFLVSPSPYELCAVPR

C=C[C@H]1CN2CC[C@H]1C[C@@H]2[C@@H](O)c1ccnc2ccc(OC)cc12
inconclusive: activity change, negative = cytotoxicity [1] -110% | caspase-3 activation [2] 32.2% | Potency [4] 12.6 µM [cytotoxic, full curve, poor fit] | Potency [5] 63.1 µM [cytotoxic, partial curve, poor fit] | Potency [6] 15 µM [activator, partial curve] | Potency [8] 31.6 µM [inhibitor, single point] | Potency [9] 0.251 µM [rising, full curve] | Potency [10] 10 µM [inhibitor, partial curve, poor fit]
inactive: Potency [3] | Potency [7]

CC(=O)SC[C@@H](Cc1ccccc1)C(=O)NCC(=O)OCc1ccccc1
inconclusive: Potency [11] 3.98 µM [inhibitor, partial curve, poor fit] | Potency [13] 35.5 µM [inhibitor, partial curve, poor fit] | Potency [10] 25.1 µM [inhibitor, single point] | Potency (7G8) 3.55 µM [inhibitor, partial curve] | Potency (ICS) 10 µM [inhibitor, single point]
inactive: Potency [14] | Potency [15] | Potency [16] | Potency [17] | Potency [18] | Potency [19] | Potency [20] | Potency (CP250) | Potency (CP268) | Potency (CP329)
active: Potency [12] 0.316 µM
